According to ChEMBL document CHEMBL1143136 (J Med Chem, 2008):
Active and inactive are the calls of the source. The calls are words filed in the database; no cut-off is given here. Where a SMILES comes first, the peptide text is derived from it. The star is where a group is joined. Trt = c1ccc(C(c2ccccc2)(c2ccccc2)*)cc1

molecular target: Kinesin-like protein KIF11 (Homo sapiens, UniProt P52732); experiment: Inhibition of human Eg5 basal ATPase activity; details: not given

Activity	Compound
inactive	CCC(c1ccccc1)(c1ccccc1)c1ccccc1
inactive	CC(C)(O)CC(c1ccccc1)(c1ccccc1)c1ccccc1
inactive	COC(=O)CSC(c1ccccc1)(c1ccccc1)c1ccccc1
inactive	CC(c1ccccc1)(c1ccccc1)c1ccccc1
inactive	CCSC(c1ccccc1)(c1ccccc1)c1ccccc1
inactive	CC(=O)NC(CSC(c1ccccc1)(c1ccccc1)c1ccccc1)C(=O)O (configuration not stated)
inactive	Nc1ccc(C(c2ccccc2)(c2ccccc2)c2ccccc2)cc1
inactive	O=C(O)C(CSC(c1ccccc1)(c1ccccc1)c1ccccc1)NC(c1ccccc1)(c1ccccc1)c1ccccc1 (configuration not stated)
inactive	O=C(O)CCSC(c1ccccc1)(c1ccccc1)c1ccccc1
inactive	COC(=O)CCSC(c1ccccc1)(c1ccccc1)c1ccccc1
inactive	c1ccc(CSC(c2ccccc2)(c2ccccc2)c2ccccc2)cc1
inactive	ClC(c1ccccc1)(c1ccccc1)c1ccccc1
inactive	OCCSC(c1ccccc1)(c1ccccc1)c1ccccc1
inactive	BrC(c1ccccc1)(c1ccccc1)c1ccccc1
inactive	O=C(O)C(CSC(c1ccccc1)(c1ccccc1)c1ccccc1)NC(c1ccccc1)c1ccccc1 (configuration not stated)
inactive	CC(=O)CCSC(c1ccccc1)(c1ccccc1)c1ccccc1
inactive	CC(C)(C)OC(=O)NC(CSC(c1ccccc1)(c1ccccc1)c1ccccc1)C(=O)O (configuration not stated)
inactive	Cc1ccccc1SC(c1ccccc1)(c1ccccc1)c1ccccc1
inactive	COC(c1ccccc1)(c1ccccc1)c1ccccc1
inactive	SC(c1ccccc1)(c1ccccc1)c1ccccc1
inactive	NC(c1ccccc1)(c1ccccc1)c1ccccc1
inactive	OC(c1ccccc1)(c1ccccc1)c1ccccc1
inactive	CC(=O)SC(c1ccccc1)(c1ccccc1)c1ccccc1

Compound	Activity
NCCCSC(c1ccccc1)(c1ccccc1)c1ccccc1	inactive
N[C@@H](CSC(c1ccccc1)c1ccccc1)C(=O)O	inactive
CC(=O)N[C@@H](CSC1(c2ccccc2)c2ccccc2-c2ccccc21)C(=O)O	inactive
O=C(O)C(CSC(c1ccccc1)(c1ccccc1)c1ccccc1)/N=C/c1cccs1 (configuration not stated)	inactive
NCCCCSC(c1ccccc1)(c1ccccc1)c1ccccc1	inactive
N[C@@H](CSC1(c2ccc(Cl)cc2)c2ccccc2-c2ccccc21)C(=O)O	inactive

same assay, conditions: read-out: Ki app

Compound	Ki [nM]
N[C@@H](CSC(c1ccccc1)(c1ccccc1)c1ccc(O)cc1)C(=O)O	23000
Cc1ccc(C(SC[C@H](N)C(=O)O)(c2ccc(C)cc2)c2ccc(C)cc2)cc1	1000
CC(C)C(SC[C@H](N)C(=O)O)(c1ccccc1)c1ccccc1	150
N[C@@H](CSC(c1ccccc1)(c1ccccc1)c1ccccc1)C(=O)OC(c1ccccc1)c1ccccc1	7000
COC(=O)[C@H](CC(C)C)NC(=O)[C@@H](N)CSC(c1ccccc1)(c1ccccc1)c1ccccc1 (H-Cys(Trt)-Leu-OMe)	1750
N[C@@H](CSC1(c2ccccc2)c2ccccc2-c2ccccc21)C(=O)O	1500
Cc1ccc(C2(SC[C@H](N)C(=O)O)c3ccccc3-c3ccccc32)cc1	13000
N[C@@H](CSC(c1ccccc1)(c1ccccc1)c1ccc2ccccc2c1)C(=O)O	200
Cc1ccc(C(SC[C@H](N)C(=O)O)(c2ccccc2)c2ccccc2)cc1	100
N[C@@H](CSC(c1ccccc1)(c1ccccc1)c1ccc(Br)cc1)C(=O)O	250
N[C@@H](CSC(c1ccccc1)(c1ccc(-c2ccccc2)cc1)c1ccc(-c2ccccc2)cc1)C(=O)O	35000
COC(=O)[C@@H](NC(=O)[C@@H](N)CSC(c1ccccc1)(c1ccccc1)c1ccccc1)C(C)C (H-Cys(Trt)-Val-OMe)	600
N[C@@H](CSC(c1ccccc1)(c1ccccc1)c1ccc2c(c1)OCO2)C(=O)O	200
N[C@@H](CSC(c1ccccc1)(c1ccccc1)c1ccc(Cl)cc1)C(=O)O	200
N[C@@H](CSC(c1ccccc1)(c1ccc(CO)cc1)c1ccc(CO)cc1)C(=O)O	23000
N[C@@H](COC(c1ccccc1)(c1ccccc1)c1ccccc1)C(=O)O	750
NCCSC(c1ccccc1)(c1ccccc1)c1ccccc1	150

Compound	Ki [nM]
Cc1ccc(C(SC[C@H](N)C(=O)O)(c2ccccc2)c2ccc(C)cc2)cc1	2000
N[C@@H](CSC(c1ccccc1)(c1ccccc1)c1ccccc1)C(=O)N[C@@H](CSC(c1ccccc1)(c1ccccc1)c1ccccc1)C(=O)O (H-Cys(Trt)-Cys(Trt)-OH)	6750
CCC(SC[C@H](N)C(=O)O)(c1ccccc1)c1ccccc1	450
CC(C)(SC(c1ccccc1)(c1ccccc1)c1ccccc1)C(N)C(=O)O (configuration not stated)	5230
N[C@@H](CSC1(c2ccc(F)cc2)c2ccccc2-c2ccccc21)C(=O)O	6000
N[C@@H](CSC(c1ccccc1)(c1ccccc1)c1cccc2ccccc12)C(=O)O	4000
N[C@@H](CSC(c1ccccc1)(c1ccccc1)c1ccc(CO)cc1)C(=O)O	14000
N[C@@H](CSC(c1ccccc1)(c1ccccc1)C1CCCCC1)C(=O)O	175
N[C@@H](CSC(c1ccccc1)(c1ccccc1)c1ccc(F)cc1)C(=O)O	150
CC(SC[C@H](N)C(=O)O)(c1ccccc1)c1ccccc1	2500
N[C@@H](CSC1(c2cccc3ccccc23)c2ccccc2-c2ccccc21)C(=O)O	900
N[C@@H](CSC(c1ccccc1)(c1ccccc1)c1ccccc1)C(=O)NCC(=O)O	1500
CC(NC(=O)[C@@H](N)CSC(c1ccccc1)(c1ccccc1)c1ccccc1)C(=O)O (some centres not stated)	1500
COC(=O)[C@@H](N)CSC(c1ccccc1)(c1ccccc1)c1ccccc1	120
CCCCC(SC[C@H](N)C(=O)O)(c1ccccc1)c1ccccc1	175
COc1ccc(C(SC[C@H](N)C(=O)O)(c2ccccc2)c2ccc(OC)cc2)cc1	600
